Assay results reported in PMC12820563, “FoxP3 forms a head-to-head dimer in vivo and stabilizes its multimerization on adjacent microsatellites”.
Some of the results follow.

target: T1, MBP-FoxP1dN (Mus musculus, UniProt P58462 326-579); test: PD-seq (MBP pull-down with sequencing); 20 mM Tris-HCl pH 7.5, 100 mM NaCl, 1.5 mM MgCl2, 0.4 uM protein, 0.1 uM dsDNA library, 30 min, room temperature, amylose pull-down; high values mean tight binding; conditions: protein: recombinant; tags: His6-MBP; chain copies: 2; dsDNA, one strand shown
T1 sequence: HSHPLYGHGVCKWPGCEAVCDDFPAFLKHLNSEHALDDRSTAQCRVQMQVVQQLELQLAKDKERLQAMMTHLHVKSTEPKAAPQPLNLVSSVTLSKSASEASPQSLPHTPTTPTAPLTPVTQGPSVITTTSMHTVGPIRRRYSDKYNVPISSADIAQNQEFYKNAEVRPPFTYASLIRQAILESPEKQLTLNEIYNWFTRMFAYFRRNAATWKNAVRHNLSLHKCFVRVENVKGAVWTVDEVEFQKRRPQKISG
How it was run: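 A degenerate double-stranded DNA library, filled in with Klenow, was added at 0.1 µM to 0.4 µM His6-MBP-tagged mouse FoxP3 or FoxP1 fragment lacking the N-terminus, expressed in E. coli. Incubation lasted 30 min at room temperature in Tris pH 7.5 buffer with NaCl and MgCl2, after which complexes were collected on amylose resin, washed three times, digested with proteinase K to free the DNA, barcoded by PCR and sequenced by Illumina. Binding is the pooled-replicate reads-per-million enrichment of pull-down over input.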

In order of rising binding signal:
1. GATGATTGTTCTCCCAGCTGATGAATTTTTGGGCTCGAGTAAACAAATTTTCCTAATCTTTCTGTTCAAGCGCCATCTAC  0.78 RPM ratio (pull-down/input)
2. GATGATTGTTCTCCCAGCTGATGAATTTGAGTGCTCGAGTAAACAAATTTTCCTAATCTTTCTGTTCAAGCGCCATCTAC  0.789 RPM ratio (pull-down/input)
3. GATGATTGTTCTCCCAGCTGATGAATTGGCGAGGTCGAGTAAACAAATTTTCCTAATCTTTCTGTTCAAGCGCCATCTAC  0.81 RPM ratio (pull-down/input)
4. GATGATTGTTCTCCCAGCTGATGAATTCCCTTAGTCGAGTAAACAAATTTTCCTAATCTTTCTGTTCAAGCGCCATCTAC  0.813 RPM ratio (pull-down/input)
5. GATGATTGTTCTCCCAGCTGATGAATTCGGAAGATCGAGTAAACAAATTTTCCTAATCTTTCTGTTCAAGCGCCATCTAC  0.815 RPM ratio (pull-down/input)
6. GATGATTGTTCTCCCAGCTGATGAATTTGCCAAGTCGAGTAAACAAATTTTCCTAATCTTTCTGTTCAAGCGCCATCTAC  0.82 RPM ratio (pull-down/input)
7. GATGATTGTTCTCCCAGCTGATGAATTGGCGCCGTCGAGTAAACAAATTTTCCTAATCTTTCTGTTCAAGCGCCATCTAC  0.823 RPM ratio (pull-down/input)
8. GATGATTGTTCTCCCAGCTGATGAATTACCCAAGTCGAGTAAACAAATTTTCCTAATCTTTCTGTTCAAGCGCCATCTAC  0.823 RPM ratio (pull-down/input)
9. GATGATTGTTCTCCCAGCTGATGAATTTCGGAGATCGAGTAAACAAATTTTCCTAATCTTTCTGTTCAAGCGCCATCTAC  0.836 RPM ratio (pull-down/input)
10. GATGATTGTTCTCCCAGCTGATGAATTTTGCCGCTCGAGTAAACAAATTTTCCTAATCTTTCTGTTCAAGCGCCATCTAC  0.839 RPM ratio (pull-down/input)
11. GATGATTGTTCTCCCAGCTGATGAATTCCACGGTTCGAGTAAACAAATTTTCCTAATCTTTCTGTTCAAGCGCCATCTAC  0.845 RPM ratio (pull-down/input)
12. GATGATTGTTCTCCCAGCTGATGAATTCGTCATCTCGAGTAAACAAATTTTCCTAATCTTTCTGTTCAAGCGCCATCTAC  0.846 RPM ratio (pull-down/input)
13. GATGATTGTTCTCCCAGCTGATGAATTCACTCAGTCGAGTAAACAAATTTTCCTAATCTTTCTGTTCAAGCGCCATCTAC  0.85 RPM ratio (pull-down/input)
14. GATGATTGTTCTCCCAGCTGATGAATTCCACCTTTCGAGTAAACAAATTTTCCTAATCTTTCTGTTCAAGCGCCATCTAC  0.856 RPM ratio (pull-down/input)
15. GATGATTGTTCTCCCAGCTGATGAATTGAATAGCTCGAGTAAACAAATTTTCCTAATCTTTCTGTTCAAGCGCCATCTAC  0.857 RPM ratio (pull-down/input)
16. GATGATTGTTCTCCCAGCTGATGAATTCCTTCTATCGAGTAAACAAATTTTCCTAATCTTTCTGTTCAAGCGCCATCTAC  0.862 RPM ratio (pull-down/input)
17. GATGATTGTTCTCCCAGCTGATGAATTCAAGAATTCGAGTAAACAAATTTTCCTAATCTTTCTGTTCAAGCGCCATCTAC  0.87 RPM ratio (pull-down/input)
18. GATGATTGTTCTCCCAGCTGATGAATTCAATTCTTCGAGTAAACAAATTTTCCTAATCTTTCTGTTCAAGCGCCATCTAC  0.873 RPM ratio (pull-down/input)
19. GATGATTGTTCTCCCAGCTGATGAATTCGACACTTCGAGTAAACAAATTTTCCTAATCTTTCTGTTCAAGCGCCATCTAC  0.882 RPM ratio (pull-down/input)
20. GATGATTGTTCTCCCAGCTGATGAATTTTTCGTCTCGAGTAAACAAATTTTCCTAATCTTTCTGTTCAAGCGCCATCTAC  0.888 RPM ratio (pull-down/input)
21. GATGATTGTTCTCCCAGCTGATGAATTTGGCCACTCGAGTAAACAAATTTTCCTAATCTTTCTGTTCAAGCGCCATCTAC  0.901 RPM ratio (pull-down/input)
22. GATGATTGTTCTCCCAGCTGATGAATTCGGTGCTTCGAGTAAACAAATTTTCCTAATCTTTCTGTTCAAGCGCCATCTAC  0.903 RPM ratio (pull-down/input)
23. GATGATTGTTCTCCCAGCTGATGAATTCGATGAATCGAGTAAACAAATTTTCCTAATCTTTCTGTTCAAGCGCCATCTAC  0.911 RPM ratio (pull-down/input)
24. GATGATTGTTCTCCCAGCTGATGAATTAATTCCCTCGAGTAAACAAATTTTCCTAATCTTTCTGTTCAAGCGCCATCTAC  0.912 RPM ratio (pull-down/input)
25. GATGATTGTTCTCCCAGCTGATGAATTAGCCCATTCGAGTAAACAAATTTTCCTAATCTTTCTGTTCAAGCGCCATCTAC  0.917 RPM ratio (pull-down/input)
26. GATGATTGTTCTCCCAGCTGATGAATTTCCATTTTCGAGTAAACAAATTTTCCTAATCTTTCTGTTCAAGCGCCATCTAC  0.933 RPM ratio (pull-down/input)
27. GATGATTGTTCTCCCAGCTGATGAATTCGAGTATTCGAGTAAACAAATTTTCCTAATCTTTCTGTTCAAGCGCCATCTAC  0.938 RPM ratio (pull-down/input)
28. GATGATTGTTCTCCCAGCTGATGAATTGCCGCTATCGAGTAAACAAATTTTCCTAATCTTTCTGTTCAAGCGCCATCTAC  0.959 RPM ratio (pull-down/input)
29. GATGATTGTTCTCCCAGCTGATGAATTGCCATGATCGAGTAAACAAATTTTCCTAATCTTTCTGTTCAAGCGCCATCTAC  0.997 RPM ratio (pull-down/input)
30. GATGATTGTTCTCCCAGCTGATGAATTCCCCTAATCGAGTAAACAAATTTTCCTAATCTTTCTGTTCAAGCGCCATCTAC  1.01 RPM ratio (pull-down/input)
31. GATGATTGTTCTCCCAGCTGATGAATTTTTCTCATCGAGTAAACAAATTTTCCTAATCTTTCTGTTCAAGCGCCATCTAC  1.03 RPM ratio (pull-down/input)
32. GATGATTGTTCTCCCAGCTGATGAATTTAATGCCTCGAGTAAACAAATTTTCCTAATCTTTCTGTTCAAGCGCCATCTAC  1.04 RPM ratio (pull-down/input)
33. GATGATTGTTCTCCCAGCTGATGAATTATTCGTGTCGAGTAAACAAATTTTCCTAATCTTTCTGTTCAAGCGCCATCTAC  1.04 RPM ratio (pull-down/input)
34. GATGATTGTTCTCCCAGCTGATGAATTAACAGTGTCGAGTAAACAAATTTTCCTAATCTTTCTGTTCAAGCGCCATCTAC  1.04 RPM ratio (pull-down/input)
35. GATGATTGTTCTCCCAGCTGATGAATTATTGAGTTCGAGTAAACAAATTTTCCTAATCTTTCTGTTCAAGCGCCATCTAC  1.05 RPM ratio (pull-down/input)
36. GATGATTGTTCTCCCAGCTGATGAATTGCGCAAGTCGAGTAAACAAATTTTCCTAATCTTTCTGTTCAAGCGCCATCTAC  1.08 RPM ratio (pull-down/input)
37. GATGATTGTTCTCCCAGCTGATGAATTGCATGTCTCGAGTAAACAAATTTTCCTAATCTTTCTGTTCAAGCGCCATCTAC  1.19 RPM ratio (pull-down/input)
38. GATGATTGTTCTCCCAGCTGATGAATTGTTGGCTTCGAGTAAACAAATTTTCCTAATCTTTCTGTTCAAGCGCCATCTAC  1.3 RPM ratio (pull-down/input)
39. GATGATTGTTCTCCCAGCTGATGAATTGCTGCAATCGAGTAAACAAATTTTCCTAATCTTTCTGTTCAAGCGCCATCTAC  1.32 RPM ratio (pull-down/input)
40. GATGATTGTTCTCCCAGCTGATGAATTGTTAGTGTCGAGTAAACAAATTTTCCTAATCTTTCTGTTCAAGCGCCATCTAC  1.64 RPM ratio (pull-down/input)
